Out of some 310,000 compounds screened, about 2,200 (0.71%) showed an effect of 50% or more. The effect is printed as a negative number. The list shows a part of the results.
What follows are compounds tested against human ether-à-go-go-related gene (hERG) potassium channel (human, UniProt Q12809) (assay: primary screen, population patch clamp on CHO cells stably expressing hERG).
Sequence of human ether-à-go-go-related gene (hERG) potassium channel (Q12809 whole entry, looked up): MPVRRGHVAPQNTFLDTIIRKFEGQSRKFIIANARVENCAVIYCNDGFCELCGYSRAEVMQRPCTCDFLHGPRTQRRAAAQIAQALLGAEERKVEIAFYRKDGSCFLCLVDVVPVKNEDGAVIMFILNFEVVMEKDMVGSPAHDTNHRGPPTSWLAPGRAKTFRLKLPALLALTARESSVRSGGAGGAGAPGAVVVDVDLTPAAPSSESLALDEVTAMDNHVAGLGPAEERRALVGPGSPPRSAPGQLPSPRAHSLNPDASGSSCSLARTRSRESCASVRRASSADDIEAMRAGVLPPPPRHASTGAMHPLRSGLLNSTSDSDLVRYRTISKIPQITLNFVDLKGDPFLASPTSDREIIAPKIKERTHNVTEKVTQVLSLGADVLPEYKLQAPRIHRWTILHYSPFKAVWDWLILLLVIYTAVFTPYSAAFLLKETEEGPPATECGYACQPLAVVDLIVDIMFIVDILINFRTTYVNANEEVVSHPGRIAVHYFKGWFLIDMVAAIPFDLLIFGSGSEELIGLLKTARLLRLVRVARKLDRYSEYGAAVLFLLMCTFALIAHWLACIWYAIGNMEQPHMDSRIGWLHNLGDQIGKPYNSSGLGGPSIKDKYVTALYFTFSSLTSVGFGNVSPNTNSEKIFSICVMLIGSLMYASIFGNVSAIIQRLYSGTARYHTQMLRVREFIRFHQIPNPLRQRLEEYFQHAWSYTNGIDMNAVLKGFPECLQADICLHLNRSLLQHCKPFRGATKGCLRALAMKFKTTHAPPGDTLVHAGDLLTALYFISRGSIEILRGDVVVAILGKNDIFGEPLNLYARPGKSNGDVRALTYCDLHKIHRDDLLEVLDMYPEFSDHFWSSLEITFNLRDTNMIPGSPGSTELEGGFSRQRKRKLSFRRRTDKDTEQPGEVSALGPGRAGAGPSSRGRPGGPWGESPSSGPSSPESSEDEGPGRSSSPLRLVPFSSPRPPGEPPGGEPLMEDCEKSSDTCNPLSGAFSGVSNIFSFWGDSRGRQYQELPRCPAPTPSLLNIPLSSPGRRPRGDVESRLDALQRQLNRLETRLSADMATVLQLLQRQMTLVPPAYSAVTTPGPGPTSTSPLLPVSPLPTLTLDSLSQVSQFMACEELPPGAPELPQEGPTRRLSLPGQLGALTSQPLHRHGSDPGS

SMILES	hERG current change (%, negative = inhibition) at 1uM
CC(C)Cc1cc(C(=O)N2CCCC(C(=O)c3cc(F)ccc3F)C2)n(C)n1 (stereo not shown)	12.4%
O=C(Nc1cccnc1)C1COc2ccccc2O1 (stereo not shown)	9.49%
CC(=O)Nc1ccc(OC(=O)c2ccc(Cl)cc2)cc1	19.1%
CCOC(=O)c1cnc2c(ccc3ccccc32)c1NCCN(C)C	6.07%
O=C(Nc1ccccn1)C1CCN(C(=O)Nc2ccccc2)CC1	12.7%
O=C(CSc1nc2ccccc2c(=O)n1CC1CCCO1)Nc1ccccc1Cl (stereo not shown)	10.9%
COC(=O)c1ccccc1NC(=O)CSc1nnnn1C	2.12%
COc1ccc(OC)c(C(=O)COC(=O)c2cccnc2Cl)c1	12%
COc1nc(Nc2ccc(C(C)=O)cc2)nc(OC)n1	6.11%
CCOc1ccc(S(=O)(=O)Nc2ccc(C(=O)NCC(C)(C)N3CCOCC3)cc2)cc1	10.7%
CCC(C)c1ccccc1NC(=S)Nc1cccnc1 (stereo not shown)	16.6%
COc1cc(CN2CCNC(=O)C2CC(=O)O)cc(OC)c1 (stereo not shown)	9.16%
NC(=O)c1cccnc1Sc1ccc(Cl)cc1	-1.09%
Cc1cccc(OCC(=O)Nc2ccc(N3CCN(S(C)(=O)=O)CC3)cc2)c1C	3.69%
CCC(C(=O)Nc1ccc(S(=O)(=O)N(C)C2CCN(C)CC2)cc1)c1ccccc1 (stereo not shown)	7.94%
Nc1nc(-c2cccc(NS(=O)(=O)c3ccccc3)c2)cs1	13.6%
O=C(O)C1C2C=CC3(CN(Cc4ccco4)C(=O)C13)O2 (stereo not shown)	9.03%
COc1ccc(C(=O)OCC(=O)Nc2ccc3c(c2)OCCO3)c(OC)c1	10.6%
CC(C)N(C(=O)CSc1nn2c(=O)c(C(C)(C)C)nnc2s1)c1ccccc1	5.43%
Cc1cc(C(=O)O)sc1C	11.2%

SMILES	hERG current change (%, negative = inhibition) at 1uM
CCCCCNc1nc2ccccc2nc1NS(=O)(=O)c1cccs1	4.54%
Cc1ccc(CNC(=O)CCSCc2cccc(F)c2)cc1	7.07%
Cc1ccc(SCC(=O)NCCSCc2ccccc2)cc1	5.45%
O=C(NCc1ccccc1)c1c[nH]c2ccc(F)cc2c1=O	8.61%
C=C(C)Cn1c(Sc2nnc(C)s2)nc2c1c(=O)[nH]c(=O)n2C	21.7%
O=C1CSC(c2ccc([N+](=O)[O-])cc2)N1c1ccccc1F (stereo not shown)	9.45%
O=C(Nc1ccccc1C(=O)NCc1ccc(Cl)cc1)c1ccco1	2.14%
Cc1ccc(CC2C(=O)N(C)C(=O)N(C)C2=O)s1	-7.49%
COc1ccc(NC(=O)c2ccc(-n3cncn3)c([N+](=O)[O-])c2)cc1OC	10.9%
CCC(C)[C@H](NC(=O)N1CCN(c2cccc(C(F)(F)F)c2)CC1)C(=O)OC (stereo partly shown)	-1.88%
CC(=O)Nc1nc(CC(=O)c2ccccc2)cs1	13%
O=C(NCCCCO)c1ccc2c3c(cccc13)CC2	7.93%
S=C(Nc1ccccc1Cl)N(Cc1ccccc1)Cc1cccnc1	12%
O=C(c1cc2ncc(Br)cn2n1)N1CCCCC1	5.05%
C=CCn1c(SCC(=O)N(CCOC)c2c(N)n(CC(C)C)c(=O)[nH]c2=O)nc2ccccc21	12.5%
Cc1ccc(Sc2ccc(NC(=O)c3ccc(S(C)(=O)=O)cc3Cl)cc2)cc1	5.66%
COc1cccc(CN2CCCN(S(=O)(=O)c3ccc(Br)cc3)CC2)c1	-22.3%
Cc1ccc(NC(=O)c2cc([N+](=O)[O-])ccc2Cl)c(O)c1	7.08%
Cc1ccc2c(c1)COc1c3ccc(C(=O)N[C@@H](CO)C(C)C)cc3nn1-2	3.97%
O=C(Nc1nc2ccccc2s1)c1cc(-c2ccccc2)nn1-c1ccccc1	11.4%

SMILES	hERG current change (%, negative = inhibition) at 1uM
O=C(NCc1ccccc1F)C(=O)NCC1CCCN1S(=O)(=O)c1cccs1 (stereo not shown)	10.6%
COC(=O)C1=C(c2ccc(C(C)=O)cc2)C[C@@H]2CC[C@H]1N2C(=O)N1CCCCC1	4.19%
Cn1c(=O)c2[nH]c(SCC(=O)c3ccc(F)cc3)nc2n(C)c1=O	14.6%
Cc1ccc(NC(=O)c2c(C)nn(-c3ccccc3)c2Cl)c(C)c1	12.6%
O=Cc1ccc2oc3nc4n(c(=O)c3c(=O)c2c1)CCCS4	4.35%
Cc1ccc2ncnc(Oc3ncccc3NC(=O)C(C)(C)C)c2c1	16.1%
Cc1ccc(S(=O)(=O)N2CCN(C(=O)CNC(=O)c3ccc(Br)o3)CC2)cc1	-2.61%
COc1ccccc1C(=O)NC(CCSC)C(=O)NC1CCCCCC1 (stereo not shown)	13.4%
O=C(Nc1ccncc1)c1cccc(S(=O)(=O)N2CCc3ccccc32)c1	5.25%
CCOC(=O)c1c(C)c(C(=O)NCc2ccc3c(c2)OCO3)c(C)n1CC	11.4%
CCOC(=O)CNC(=O)c1c(C)nn(-c2ccccc2)c1Cl	2.03%
O=C(NOCc1ccccc1)c1ccc([N+](=O)[O-])cc1	11%
CCCN=C1CC(C)(C)CC(=O)/C1=C(/O)CCC	16.7%
CCn1cc(CCC(=O)NCc2ccccc2OC)c2ccccc21	11.2%
O=C(COC(=O)c1nc(Cl)ccc1Cl)NCCc1ccccc1	9.9%
CCOc1ccc(CCNC(=O)C2CCN(c3nnc(-n4cccc4)s3)CC2)cc1	10%
N#CC1(NC(=O)COC(=O)Cn2[nH]c(=O)c3ccccc3c2=O)CCCCC1	6.38%
N#Cc1ccccc1Cn1cc(C(=O)c2ccco2)c2ccccc21	7.81%

From paper PMC4336329 (PLoS ONE, 2015)
